# The whole screen tested about 390,000 compounds, of which about 930 (0.24%) were called active. Inconclusive results, whose numbers are uncertain, are shown with a selection of clear calls. The call rests on the fitted dose curve; in most records, active means well fitted activation curve with a large enough effect; inconclusive means small, poorly fitted or top-dose-only effect; inactive means no such curve, though single readings can be large or run the other way. Potencies beside an inconclusive call are fits to weak or partial responses and may not hold up.
# Assay: qHTS for Suppressors of FUS Proteinopathy: Primary screen using FUS-linked yeast assay; further: nearly all actives have a fitted effect of over 55% in size;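 on growth rescue (activation): plate controls were DMSO vehicle for no effect and reference control for full effect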
# Details: S. cerevisiae FUS-expressing, OD600, 24 h; Potency: growth rescue; growth rescue (activation): at 76.6 µM (top of the series)
# Summary of the method: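 Cultures pregrown in 2.5% raffinose medium are shifted to minimal medium containing 2% galactose to express toxic FUS. Compounds are tested at several concentrations. After 24hr at 30C, growth is quantified at 600 nm absorbance.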
# Potency means the concentration at half of the fitted maximal effect; tags describe the fitted curve by direction and shape.
Compound,Potency,growth rescue (activation)
CCN1CCC(N(Cc2ccc3c(c2)OCO3)C(=O)Nc2cc(Cl)ccc2C(=O)OC)CC1,inactive,
C[C@@H]1[C@@H](O)C[C@@]2(C[C@H](O)c3cc(F)ccc3O2)O[C@H]1c1ccccc1Cl,inactive,
CCCS(=O)(=O)N1CCN(CC2CC=CCC2)CC1 (stereo not given),inactive,
COc1ccc(NC(=O)C2(C)Cc3c(-c4cccc(C(F)(F)F)c4)ccnc3O2)cc1OC (stereo not given),"inconclusive: 31.6 µM [activator, single point]",
Cc1ccc(Cn2c(C(C)Nc3nc(-c4ccc(F)cc4)cs3)nc3cc(C(=O)NCCCO)ccc32)cc1 (stereo not given),"inconclusive: 28.2 µM [activator, single point]",
Cc1c(C(=O)NCc2cccnc2)oc2ccc(S(=O)(=O)N3CCC4(CC3)OCCO4)cc12,inactive,
Cc1ccc(-c2cc(C(=O)N3CCN(c4ccccc4O)CC3)c3ccccc3n2)o1,"inconclusive: 31.6 µM [activator, single point]",
Clc1cccc(Nc2ncnc3ccc(Br)cc23)c1,,inconclusive: -45.8% [activator]
CCOc1ccc(/C(O)=C2\C(=O)C(=O)N(c3ccc(OC)cc3)C2c2ccccc2[N+](=O)[O-])cc1 (stereo not given),"inconclusive: 35.5 µM [activator, single point]",
COc1ccc(OC)c(N)c1,"inconclusive: 44.7 µM [activator, single point]",
CN(CC1COc2ccccc2O1)C(=O)c1ccc(Cl)c(S(=O)(=O)N2CCCCCC2)c1 (stereo not given),"inconclusive: 31.6 µM [activator, single point]",
CC(=NCCc1c(C)[nH]c2ccc(OCc3ccccc3)cc12)C1=C(O)CC(c2ccccc2)CC1=O (stereo not given),"inconclusive: 20 µM [activator, partial curve, poor fit]",
COC(=O)[C@]12C[C@H](CC(=O)NCc3cccs3)C(=O)N(CCc3ccc(OC)c(OC)c3)C1=C[C@H](C1CCCC1)O[C@@H]2C,"inconclusive: 20 µM [activator, single point]",
Clc1ncnc2scc(C3COc4ccccc4O3)c12 (stereo not given),inactive,
CCOC(=O)Cc1csc(NC(=O)c2sc3nc4cc(C)ccc4cc3c2N)n1,"inconclusive: 11.2 µM [activator, partial curve]",
OC(COc1ccccc1)CN1CCCCCC1 (stereo not given),inactive,
Clc1ccc(SCCn2cncn2)cc1,"inconclusive: 11.2 µM [activator, single point]",
CCn1c(SCc2ccccc2Cl)nc(=O)c2c(C(=O)OC)cc(C3CC3)nc21,"inconclusive: 12.6 µM [activator, partial curve, poor fit]",
Cc1ccc2[nH]c(=O)c(CN(Cc3cccs3)Cc3nnnn3Cc3ccccc3)cc2c1,"inconclusive: 17.8 µM [activator, partial curve]",
C=CC[C@@H](CC(=O)N[C@H](CO)Cc1ccccc1)C(=O)N[C@@H](COC(=O)[C@@H](CC=C)CC(=O)OC(C)(C)C)Cc1c[nH]c2ccccc12,active: 17.8 µM,
O=C(CC1SC(=Nc2ccc(OC(F)F)cc2)N(CCN2CCOCC2)C1=O)Nc1ccc(F)cc1F (stereo not given),inactive,
CC(=O)c1cccc(NC(=O)C2Cc3c(-c4ccc(Cl)cc4)ccnc3O2)c1 (stereo not given),active: 39.8 µM,

Compound,Potency,growth rescue (activation)
CCc1ccccc1NC(=O)NC1CCCCC1,inactive,
COc1cc(NC(=O)CCn2cnc3ccccc3c2=O)cc(OC)c1,inactive,
COC(=O)c1sc(N2C(=O)C(O)=C(C(=O)c3ccc(C)o3)C2c2cccs2)nc1C (stereo not given),"inconclusive: 35.5 µM [activator, partial curve, poor fit]",
O=C1/C(=C/c2ccccc2F)SC(=S)N1CCC(=O)N1CCCCC1CCO (stereo not given),"inconclusive: 25.1 µM [activator, partial curve, poor fit]",
CCC(C)c1ccc(O)c(NC(=O)c2cccnc2)c1 (stereo not given),inactive,
CCC(NC(=O)c1ccc2c(ccn2Cc2cccc(-c3ccccc3C(=O)O)c2)c1)c1ccccc1 (stereo not given),"inconclusive: 15.8 µM [activator, partial curve, poor fit]",
Nc1ccc(C(=O)OCc2nc3c(ccc4ccccc43)[nH]2)cc1,"inconclusive: 31.6 µM [activator, partial curve, poor fit]",
Cc1cccc(-n2c(SCC(N)=O)nc3c(c2=O)C2(CCCCC2)Cc2ccccc2-3)c1,"inconclusive: 35.5 µM [activator, single point]",
Cc1cc(SCC(=O)N2CCN(C(=O)c3ccco3)CC2)c(C)cc1Br,inactive,
CCNC(=O)Nc1ccc2c(c1)C(=O)N(C)[C@H]1CC[C@@H](CC(=O)OC)O[C@H]1CO2,inactive,
CCOC(=O)c1ccc(NC(=O)CN2c3ccccc3S(=O)(=O)c3ccccc32)cc1,"inconclusive: 44.7 µM [activator, single point]",
CC1CCCCC1NC(=O)CCc1nc2sc3c(c2c(=O)[nH]1)CCCC3 (stereo not given),"inconclusive: 7.94 µM [activator, partial curve]",
CCN(C(=O)CSc1nc2ccccc2n1CC(=O)NCc1ccc(OC)cc1)c1ccccc1,"inconclusive: 35.5 µM [activator, single point]",
Cc1c(Nc2ccc(C=O)cc2)c(=O)n(-c2ccccc2)n1C,"inconclusive: 50.1 µM [activator, single point]",
C=CCN(c1ccc(C(=O)Nc2ccc3c(c2)OCO3)cc1)S(C)(=O)=O,inactive,
Cc1ccc(C23CC4CC(CC(CC(=O)N5CCOCC5)(C4)C2)C3)cc1,"inconclusive: 39.8 µM [activator, partial curve, poor fit]",
COc1ccc(CCNC(=O)CCc2c(C)nc3cc(-c4ccccc4OC)nn3c2C)c(OC)c1,"inconclusive: 25.1 µM [activator, single point]",
CCOC(=O)N1CCN(c2ncc3c(n2)CC(c2ccccc2O)CC3=O)CC1 (stereo not given),inactive,
CCCCCCCC/C=C\CCCCCCCC(=O)NCCO,"inconclusive: 25.1 µM [activator, partial curve, poor fit]",
COc1cc(C(C)=O)ccc1OCC(=O)Nc1ccc(S(=O)(=O)N2CCCCC2)cc1,"inconclusive: 28.2 µM [activator, partial curve]",
COc1cccc(C(=O)N2CCc3c([nH]c4ccccc34)C2c2ccc(SC)cc2)c1 (stereo not given),"inconclusive: 28.2 µM [activator, partial curve]",
Cc1c(Cl)cccc1NC(=S)N1CCCN(Cc2ccc(F)cc2)C1,"inconclusive: 31.6 µM [activator, single point]",

Compound,Potency,growth rescue (activation)
CC12CCC(C/C1=N\N=C1\NC(=O)/C(=C\c3ccc(Cl)cc3)S1)C2(C)C (stereo not given),"inconclusive: 7.08 µM [activator, single point]",
COc1ccc(-c2c(C#Cc3ccsc3)c3cc(-c4ccc5[nH]ccc5c4)ccc3n2C)cc1,"inconclusive: 5.62 µM [activator, partial curve, poor fit]",
CNC(=O)C1CCC(Cn2c(=O)c3sccc3n(CC(=O)NCc3cccc(OC)c3)c2=O)CC1 (stereo not given),inactive,
COC(=O)[C@]12CCCCC=C1N(Cc1ccco1)C(=O)[C@H](CC(=O)NCCc1ccccc1OC)C2,"inconclusive: 31.6 µM [activator, single point]",
CCCCCCCCN1C(=O)[C@@H](CC(=O)NCCCC)C[C@@]2(C(=O)OC)C1=C[C@H](COCc1ccccc1)O[C@@H]2C,"inconclusive: 20 µM [activator, single point]",
Oc1ccc(C[C@H]2CNC(=S)N2CC2CCCN2C[C@H](Cc2ccc(O)cc2)N2C[C@H](Cc3ccccc3)N(CCc3ccccc3)C2=S)cc1 (stereo not given in full),"inconclusive: 31.6 µM [activator, single point]",
O=C(NCc1ccccc1)c1cc(C2CCCN(S(=O)(=O)c3cccc4cccnc34)C2)on1 (stereo not given),"inconclusive: 39.8 µM [activator, single point]",
CN(C)c1ccc(/C=N\NC(=S)SCN2C(=O)C3CCC(C)(C2=O)C3(C)C)cc1 (stereo not given),inactive,
CCOC(=O)c1c(N)sc2c(O)c(Br)ccc12,inactive,
CCCN1C(=O)/C(=C/c2ccc(OCC(=O)OCC)cc2)NC1=S,active: 22.4 µM,
COc1ccc(C(=O)CC(=O)C(=O)Nc2ccc(C)c(C)c2)cc1,"inconclusive: 50.1 µM [activator, partial curve, poor fit]",
Cc1ccc(CNC(=O)CCc2c(C)nc3c(c(C)nn3-c3ccccc3)c2C)cc1,inactive,
COc1ccc(-n2c(SCC(=O)Nc3cc(C)on3)nc3ccc(O)cc3c2=O)cc1OC,"inconclusive: 50.1 µM [activator, single point]",
C/C(=N/OC(=O)c1ccc(C)cc1)c1cccs1,inactive,
CCc1cccc(C)c1NC(=O)CC1Oc2ccc(C)cc2NC1=O (stereo not given),"inconclusive: 22.4 µM [activator, partial curve]",
Cc1ccc(C(=O)N2CCC3(CC2)Oc2ccc(F)cc2C(=O)C32CC(c3cccnc3)=NO2)s1 (stereo not given),inactive,
O=C(O)COc1ccccc1C(Nc1ccccn1)c1cc(Cl)c2cccnc2c1O (stereo not given),"inconclusive: 35.5 µM [activator, single point]",
COc1ccc(F)cc1-c1cc(C(=O)NCc2cccc(Cl)c2)[nH]n1,inactive,
CCN(CC)S(=O)(=O)c1ccc(NC(=O)c2ccc(OCC3CCCO3)cc2)cc1 (stereo not given),"inconclusive: 20 µM [activator, single point]",
O=c1c2ccccc2n(Cc2ccno2)n1[C@@H](Cc1ccccc1)Cn1cc(-c2ccc(-c3ccccc3)cc2)nn1,"inconclusive: 11.2 µM [activator, single point]",
O=S(=O)(c1cc(Cl)ccc1Cl)N1CCCCC1,inactive,
